# In paper PMC5668318:
# Amino acid sequences for entries named in this document (tags omitted). A change or cut given only in a name is not applied to a line headed by its entry.
# UniProt Q9W2S2: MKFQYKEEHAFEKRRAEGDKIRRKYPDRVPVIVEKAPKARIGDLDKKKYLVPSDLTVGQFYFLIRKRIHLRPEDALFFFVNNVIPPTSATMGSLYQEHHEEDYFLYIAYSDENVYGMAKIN
# Substitutions are numbered along the chain they refer to. These are yes or no findings as the source states them, for the method shown. Binding seen in cells or lysates may run through a third protein. Some binding calls cover weakened binding; strength is not graded here. Tags and fused reporters may be left off the sequences shown.
# B1: 35S-Myc-Kenny (wild type) (protein, UniProt Q9GYV5 1-387)
# chain: MSDEESFVILGSSPCSSLMPDSSLRSDVCGNAQEAEETVASTSTQPPTVNCIPVSITASQQQHKSLDSGSSQQQSLATSFIMGEIQSDVLKNSVYSQFPSLCSLQGSAEEVVKLQNMMTEYLALKSTLDKVNQTMLNYHNLTQQWRQEAADREHQYKEHVKECQAQIAILRVENQELKRDLETKIEQIEGVHTIRLKEQDELRKSVSEKQSLIDNMRVEIDKLKQLNHSFEFVPEYATESKSQELIKKMQLDINELKARDIQKQEVIKGLQIQNDIYRRDFEMERADREKNAGEKDQYLMDLRSLQRRNQELIEALAESHKASKACSTASPLSSSRSNLREEQRPILDPTGASSRTSDTTLRCPICSKSFNALSVLQSHVNDCLDKN
# modifications: 35S-methionine labelled
# B2: mCherry-ird5 (protein, UniProt Q9VEZ5 1-751)
# chain: MITVVFCFSDCHGGIQILGRMSSVNKIKLNENNKMHSFGNWERCRNLGEGGFGLVIHWRNRTTGREIATKHIKEMGALSADQQVKLSERWNKELNWSRQFKNFPHIVAGVDIEDPDFLEYLNGMFSAKLPVIVLEYCNGGDVRKRLQSPENANGLTEFEVRQILGALRKALHFLHSQCGICHRDLKPDNIVIQRGVDGKKIYKLTDFGLARGTPDQTMVQSVVGTRHYYAPEVVENGFYNSTVDLWSFGVIAYELVTGELPFIPHQTLKNIILNLIKKPAKCIAITEDPEDNTRFVNQFELPQTHHLSRPWAAQFTKWLASPLNSNYKERGQLAANNVPVVFADLDKILNMNVLTIFAVNNCERLEYAVSAEMTMKDLIALIVLDTGMDEKELYFVLPTSHPHKTITPKSTPLQLYVEEWSDTSKDSRKWTKRSNPPVMLYIFQVKKECDYKIPEPILSILSRKFIANKFKTKERWLQKRVVLDMLYVLTKEQARYEMLVSGINERALSLEDEMMENSFIDSIDKQRIIISFAYDQLTSLLKEAQAKIPSRQLISSAQWEKLNRNYNFIIQSAKSIRSFLEACLREAKDMVKTTNQLRKEVCEKDLFDCARFYKKYLCNGAIISPSELNNDAEEFAKSRFKLYNEGEARHLPKSIDHMHYLYFKTKESIPVLLQQFCDIKKEIFQINLQMLMSASSTPPPKLELSAAMDRLAISSGSPSSDPFDSLRTINAIEEAERINNILVNEMKIDHY
# B3: 35S-Myc-ird5 (protein, UniProt Q9VEZ5 1-751)
# chain: B2 chain
# modifications: 35S-methionine labelled
# Key:
# [1] = molecular target: T1, 3XFLAG-Kenny (wild type) (Drosophila) (UniProt Q9GYV5); test: co-IP; anti-FLAG M2-agarose immunoprecipitation from lysates of transfected S2R+ cells, 4 °C overnight, elution with 3XFLAG peptide, blot for GFP
# T1 sequence: B1 chain
# [2] = molecular target: GST-Atg8a LDS mutant (K48A/Y49A) (Drosophila) (UniProt Q9W2S2); test: pull-down; 1-10 µg GST fusion protein on glutathione-Sepharose beads with 10 µL in vitro translated 35S-methionine-labelled protein; NETN buffer (50 mM Tris pH 8.0, 100 mM NaCl, 6 mM EDTA, 6 mM EGTA, 0.5% Nonidet P-40, 1 mM DTT), 1 h at 4 °C; autoradiography; only the target purified
# [3] = molecular target: GST-Atg8a (wild type) (Drosophila) (UniProt Q9W2S2); test: as above
# [4] = molecular target: T2, GFP-Kenny F7A/L10A (Drosophila) (UniProt Q9GYV5); test: co-IP; anti-GFP immunoprecipitation (Abcam Ab290, G beads) from lysates of flies expressing GFP-Kenny along with mCherry-ird5; TNT lysis buffer, 2 h at 4 °C
# T2 sequence: B1 chain with F7A, L10A
# [5] = molecular target: T3, GFP-Kenny (wild type) (Drosophila) (UniProt Q9GYV5); test: as above
# T3 sequence: B1 chain
# [6] = molecular target: T4, GST-Kenny (wild type) (Drosophila) (UniProt Q9GYV5); test: pull-down; 1-10 µg GST fusion protein on glutathione-Sepharose beads with 10 µL in vitro translated 35S-methionine-labelled protein; NETN buffer (50 mM Tris pH 8.0, 100 mM NaCl, 6 mM EDTA, 6 mM EGTA, 0.5% Nonidet P-40, 1 mM DTT), 1 h at 4 °C; autoradiography; only the target purified
# T4 sequence: B1 chain
molecule,measurement,setting,value
eGFP-Atg8a (from UniProt Q9W2S2 1-121),binding,[1],binds
B1,binding,[2],no binding
same,binding,[3],binds
B2,binding,[4],binds
same,binding,[5],binds
B3,binding,[6],binds
